In PubChem BioAssay AID1468 (National Center for Advancing Translational Sciences (NCATS), 2008):
Several values for one entry are separate records, joined by “and”; a condition that tells them apart may be missing. Equal values may be shown once. The whole screen tested about 280,000 compounds, of which about 1,100 (0.39%) were called active. Inconclusive means that the source gave no clear call. Such entries were picked first, then a sample of the others. Calls follow the shape of the dose curve; as a rule, active = well fitted inhibition curve with a large enough effect; inconclusive = small, poorly fitted or top-dose-only effect, or effect the other way; inactive = flat fitted curve, though single readings scatter. Where the call is inconclusive, the potency comes from a doubtful curve fit.
% is scaled to controls: 0 for no effect and ±100 for the full control effect; potency is read from the fitted curve at half-maximal effect; tags tell the direction and shape of the fitted curve.
Also: nearly all actives have a fitted effect of over 55% in size.

The molecules below were run against Microtubule-associated protein tau (Homo sapiens) (UniProt P10636) (assay: qHTS for Inhibitors of Tau Fibril Formation, Fluorescence Polarization). Settings: K18 P301L tau heparin fibrillization, Alexa594 FP, 6 h; series mostly up to 57.7 µM; activity, negative = inhibition: at the top concentration.
Sequence of UniProt P10636 (P10636 whole entry, looked up): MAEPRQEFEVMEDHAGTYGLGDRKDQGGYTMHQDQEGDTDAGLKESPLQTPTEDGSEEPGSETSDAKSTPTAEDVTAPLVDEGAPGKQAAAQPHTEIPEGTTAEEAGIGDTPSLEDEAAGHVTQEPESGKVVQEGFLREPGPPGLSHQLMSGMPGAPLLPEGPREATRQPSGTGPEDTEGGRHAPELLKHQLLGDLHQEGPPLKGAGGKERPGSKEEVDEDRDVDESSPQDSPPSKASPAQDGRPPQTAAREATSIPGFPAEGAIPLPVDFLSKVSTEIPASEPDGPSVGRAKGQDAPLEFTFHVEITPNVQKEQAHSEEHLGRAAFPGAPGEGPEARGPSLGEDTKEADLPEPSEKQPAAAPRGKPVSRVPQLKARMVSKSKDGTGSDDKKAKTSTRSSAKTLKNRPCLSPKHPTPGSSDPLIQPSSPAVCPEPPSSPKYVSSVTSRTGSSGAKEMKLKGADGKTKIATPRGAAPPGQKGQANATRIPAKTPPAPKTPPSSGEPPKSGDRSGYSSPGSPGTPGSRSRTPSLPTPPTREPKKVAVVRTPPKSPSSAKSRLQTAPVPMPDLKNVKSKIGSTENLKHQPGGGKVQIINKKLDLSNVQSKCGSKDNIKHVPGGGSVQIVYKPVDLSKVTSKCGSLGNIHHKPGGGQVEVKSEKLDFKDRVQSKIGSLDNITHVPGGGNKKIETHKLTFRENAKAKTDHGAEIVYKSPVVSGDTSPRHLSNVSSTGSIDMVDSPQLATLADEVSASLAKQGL
Summary of the method: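 Steps: dispense K18 P301L tau (15 uM plus 0.24 uM Alexa 594 tracer, final) in pH 7 sodium acetate; add compound; add heparin (20 uM final); incubate 6 hr, 37 C; add ThT (30 uM final); after 1 hr ambient, read FP.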
In the case of `N[C@@H](CCC(=O)N[C@H](CSN=O)C(=O)NCC(=O)O)C(=O)O`, the Potency was inconclusive: 22.4 µM [inhibitor, single point]. In the case of `CSc1nc(-c2ccco2)nn1S(=O)(=O)c1ccc(C)cc1`, the Potency was inconclusive: 1.58 µM [inhibitor, partial curve]. For `O=C1c2ccccc2C(=O)N1/N=C/c1ccc(O)c(O)c1`, the “activity, negative = inhibition” value was inactive: -0.347%. In the case of `CCOc1ccc(NC(=O)Cn2c(=O)n(Cc3nc(-c4ccccc4)no3)c(=O)c3ccccc32)cc1`, the Potency was inconclusive: 12.6 µM [inhibitor, partial curve]. For `Clc1ccc(-c2nnc(CSc3nnc(-c4cccs4)n3Cc3ccccc3)o2)cc1`, the “activity, negative = inhibition” value was inactive: -1.82%. With `Cc1ccc(Cl)cc1NC(=O)/C(C#N)=C\c1cn(Cc2ccc(F)cc2)c2ccccc12` the Potency was inconclusive: 1.41 µM [inhibitor, full curve, poor fit]. In the case of `COc1cccc(Nc2nc(-c3sc(NC(=O)c4ccco4)nc3C)cs2)c1`, the Potency was inconclusive: 14.1 µM [activator, single point]. `C[N+](C)(C)CCCCCC[N+](C)(C)C` was tested, and the Potency was “inactive”. `Cc1ccc(Nc2ccc(NCc3ccccc3)nn2)cc1C` was tested, and the Potency was inconclusive: 11.2 µM [activator, partial curve]. `Cc1ccccc1C(=O)Nc1ccc2nc(SCCOc3ccccc3)sc2c1` was tested, and the Potency was inconclusive: 3.16 µM [inhibitor, full curve, poor fit]. With `c1coc(C2Nc3ccccc3-c3nc4ccccc4n32)c1` (stereo not given) the Potency was inconclusive: 39.8 µM [inhibitor, single point]. For `O=C(NCc1ccc(F)cc1)c1cc2c(s1)-c1ccccc1SC2`, the Potency was inconclusive: 15.8 µM [inhibitor, partial curve, poor fit]. In the case of `CC(C)CCN(CC(=O)NC(C)(C)C)C(=O)C(=O)Nc1ccc2c(c1)OCCO2`, the Potency was inconclusive: 39.8 µM [inhibitor, single point]. With `COCC(=O)N(CCc1ccc(OC)c(OC)c1)Cc1nc2ccccc2c(=O)[nH]1` the “activity, negative = inhibition” value was inactive: -4.34%. For `CCOC(=O)C1=C(C)N(c2ccccc2)C(=O)/C1=C\c1ccco1`, the Potency was inconclusive: 17.8 µM [inhibitor, partial curve]. For `COc1ccc(C/C(C)=N/Nc2nc(C)cc(=O)[nH]2)cc1`, the Potency was inconclusive: 17.8 µM [inhibitor, partial curve]. With `Cc1ccc(N(CC(=O)Nc2ccc(Br)c(C)c2)S(=O)(=O)c2cccs2)cc1` the Potency was inconclusive: 12.6 µM [inhibitor, partial curve]. With `CCCn1nc(NC(=O)C2CCCO2)c2cc3ccc(C)cc3nc21` (stereo not given) the Potency was inconclusive: 3.16 µM [inhibitor, single point]. For `N#C/C(=N\Nc1cccc([N+](=O)[O-])c1)C(=O)c1ccc(Br)cc1`, the “activity, negative = inhibition” value was inactive: 13.7%. In the case of `CCOc1ccc(CCNC(=O)C2Cc3ccccc3N2C(=O)CC)cc1OCC` (stereo not given), the “activity, negative = inhibition” value was inactive: -15.5%. In the case of `CC(=O)c1ccc(NC(=O)CSc2ccc3nc(-c4ccccc4)cn3n2)cc1`, the Potency was inconclusive: 17.8 µM [inhibitor, partial curve]. For `c1ccc(-c2c3ccccc3nc3[nH]c4ccccc4c23)cc1`, the Potency was “inactive and inconclusive: 35.5 µM [inhibitor, partial curve, poor fit]”. In the case of `Cc1ccccc1Oc1nc2c(c(=O)n(C)c(=O)n2C)n1Cc1ccc(Br)cc1`, the “activity, negative = inhibition” value was inactive: -2.96%. `CC12CCC(c3c(CO)nn(-c4ccccc4)c31)C2(C)C` (stereo not given) was tested, and the “activity, negative = inhibition” value was inactive: -0.784%. With `CSc1cc(-c2ccccc2)n(Cc2ccccc2Cl)c(=O)c1C#N` the Potency was inconclusive: 14.1 µM [inhibitor, partial curve, poor fit]. In the case of `CC1(C)CC(=O)c2c(oc3cc(O)c(O)cc23)C1`, the Potency was inconclusive: 31.6 µM [inhibitor, partial curve]. In the case of `CCCCc1ccc(Nc2ncnc3c2cnn3-c2ccc(C)cc2)cc1`, the “activity, negative = inhibition” value was inactive: -5.65%. For `CCCCCCn1c(=O)[nH]c2nc3cc(N)ccc3nc2c1=O`, the Potency was inconclusive: 39.8 µM [inhibitor, single point]. For `COc1cccc(CNc2nc3ccccc3n2CCN2CCCCC2)c1OC`, the Potency was inconclusive: 39.8 µM [activator, single point]. `CNc1cc(CSC)nc(SCc2ccc(Cl)c(Cl)c2)n1` was tested, and the “activity, negative = inhibition” value was inactive: -18%. With `CN(C)CC(=O)Nc1cc(C(F)(F)F)ccc1Cl` the “activity, negative = inhibition” value was inactive: 2.08%. In the case of `COC(=O)c1ccc(OC)c(Cn2c(=O)n(-c3ccc(C)cc3)c(=O)c3c2cnn3C)c1`, the Potency was inconclusive: 2.82 µM [inhibitor, full curve, poor fit]. With `COc1ccc(C2CC(=O)N(CC(=O)Nc3ccc(C(F)(F)F)cc3)c3ccccc3S2)cc1` (stereo not given) the Potency was inconclusive: 20 µM [inhibitor, partial curve]. `CCOc1ccc(CCNC(=O)c2cccnc2N2CCCC2)cc1OCC` was tested, and the Potency was inconclusive: 28.2 µM [inhibitor, single point]. With `CCc1ccc(OCC(=O)NCC(c2ccc(OC)cc2)N2CCOCC2)cc1` (stereo not given) the “activity, negative = inhibition” value was inactive: 4.96%. With `Cc1ccc(CNC(=O)CS(=O)Cc2nc(-c3cccs3)oc2C)cc1` (stereo not given) the “activity, negative = inhibition” value was inactive: -0.238%. With `FC(F)(F)c1cc(-c2ccccc2)nc(NCc2cccs2)n1` the Potency was inconclusive: 17.8 µM [inhibitor, single point]. With `CC(=O)c1noc(C)c1C(=O)Nc1nccs1` the “activity, negative = inhibition” value was inactive: -1.38%. `Cc1cc(O)c(-c2cc(O)c(C)cc2O)cc1O` was tested, and the Potency was active: 14.1 µM. With `O=C1c2ccccc2-c2nnc(-c3ccc(O)cc3)cc21` the “activity, negative = inhibition” value was inactive: 15%. For `O=C(COC(=O)CCCN1C(=O)c2cccc3cccc(c23)C1=O)Nc1cccc(Br)c1`, the Potency was inconclusive: 2 µM [inhibitor, full curve, poor fit]. `CCOC(=O)c1cnc2ccc(C)cc2c1Nc1ccc(N2CCOCC2)cc1` was tested, and the Potency was inconclusive: 35.5 µM [inhibitor, single point]. In the case of `C#CCOCCOCCOCCNc1nc(N2CCN(C(=O)[C@H](CCC(=O)O)n3cc(C(N)CC(C)C)nn3)CC2)nc(N2CCN(C(=O)[C@H](Cc3ccc(O)cc3)n3cc(C(N)CC(C)C)nn3)CC2)n1` (stereo not given in full), the “activity, negative = inhibition” value was inactive: 14.5%. `COc1cnc(-c2ccccn2)nc1Oc1cccc(Cl)c1` was tested, and the “activity, negative = inhibition” value was inactive: 3.1%. With `CN(C(=O)CSc1nnc(-c2ccc([N+](=O)[O-])cc2)o1)c1ccccc1` the “activity, negative = inhibition” value was inactive: -4.31%.
